# Data published in article PMC4336329 (PLoS ONE, 2015).
# The whole screen tested about 310,000 compounds, of which about 2,200 (0.71%) showed an effect of 50% or more. Effects have a minus sign here. The list shows a part of the results.
# Target: human ether-à-go-go-related gene (hERG) potassium channel (human, UniProt Q12809)
# Assay: primary screen, population patch clamp on CHO cells stably expressing hERG
# human ether-à-go-go-related gene (hERG) potassium channel, sequence (Q12809 whole entry, looked up): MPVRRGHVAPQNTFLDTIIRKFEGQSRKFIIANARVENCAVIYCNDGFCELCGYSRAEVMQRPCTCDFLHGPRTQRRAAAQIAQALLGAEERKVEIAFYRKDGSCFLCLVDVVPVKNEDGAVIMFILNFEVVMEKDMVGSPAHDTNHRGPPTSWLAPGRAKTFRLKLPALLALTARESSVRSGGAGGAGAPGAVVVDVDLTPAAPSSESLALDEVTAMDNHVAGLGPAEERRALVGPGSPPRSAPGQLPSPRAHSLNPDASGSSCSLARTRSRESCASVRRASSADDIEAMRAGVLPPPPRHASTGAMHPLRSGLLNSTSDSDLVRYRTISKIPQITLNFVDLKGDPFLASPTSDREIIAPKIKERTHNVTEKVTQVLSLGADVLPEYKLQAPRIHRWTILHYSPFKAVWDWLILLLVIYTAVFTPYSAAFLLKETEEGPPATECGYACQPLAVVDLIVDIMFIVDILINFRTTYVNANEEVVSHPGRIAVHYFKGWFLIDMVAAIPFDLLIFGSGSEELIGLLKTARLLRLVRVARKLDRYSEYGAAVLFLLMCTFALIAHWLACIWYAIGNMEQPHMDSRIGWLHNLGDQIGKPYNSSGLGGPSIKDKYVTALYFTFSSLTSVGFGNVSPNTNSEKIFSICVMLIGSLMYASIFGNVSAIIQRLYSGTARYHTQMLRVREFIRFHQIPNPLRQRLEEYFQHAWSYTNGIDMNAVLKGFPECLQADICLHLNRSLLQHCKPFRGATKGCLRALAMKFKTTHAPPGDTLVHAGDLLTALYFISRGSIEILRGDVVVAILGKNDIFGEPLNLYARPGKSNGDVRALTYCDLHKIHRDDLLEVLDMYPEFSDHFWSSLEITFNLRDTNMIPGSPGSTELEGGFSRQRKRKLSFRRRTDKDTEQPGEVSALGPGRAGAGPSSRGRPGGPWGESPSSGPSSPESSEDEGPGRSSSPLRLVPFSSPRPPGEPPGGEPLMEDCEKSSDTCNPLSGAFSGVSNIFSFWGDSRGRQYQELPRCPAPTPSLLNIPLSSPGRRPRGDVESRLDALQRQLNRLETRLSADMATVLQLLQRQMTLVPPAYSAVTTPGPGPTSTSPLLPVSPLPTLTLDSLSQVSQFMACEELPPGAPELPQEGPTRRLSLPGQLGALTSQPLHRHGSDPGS
row,Structure (SMILES),"hERG current change (%, negative = inhibition) at 1uM"
1,Cl.NOCC(=O)O,13%
2,O=C(O)c1ccccc1Nc1ccnc(Cl)n1,12.5%
3,CCOc1ccc(-n2c(=O)c3c(C)c(C)sc3n(CC(=O)NCc3ccco3)c2=O)cc1,6.41%
4,CCOc1nc(SCCOc2ccc(Cl)cc2Cl)nc(N(C)C)n1,13.2%
5,C[N+](C)(C)Cc1ccccc1.[Cl-],14.2%
6,COC(=O)c1ccccc1NC(=O)Cc1ccccc1OC,0.402%
7,O=C(CC1C(=O)NCCN1Cc1ccc(-c2ccccc2)cc1)NCC1CC1 (stereo not drawn),-4.81%
8,Oc1c(Br)cc(Br)cc1C=NCc1ccccc1,9.16%
9,CCCCN1CCc2c([nH]c3ccc(C)cc23)C1=O,9.53%
10,CC(C)CN1CCN(Cc2cccn2-c2ccccn2)CC1CCO (stereo not drawn),-18.8%
11,CCC(C)c1ccc(NC(=O)C2CC3CCC2C3)cc1 (stereo not drawn),14%
12,Cc1c(C(=O)NCC2CCCO2)oc2ccc(S(=O)(=O)N3CCCC3)cc12 (stereo not drawn),11%
13,Nc1cc(C(=O)O)ccc1Sc1ccccc1C(=O)O,12.9%
14,COC(=O)c1sccc1NC(=O)CC1C(=O)NCCN1C(=O)Nc1ccc(F)cc1F (stereo not drawn),6.74%
15,COc1ccccc1Cn1c(=S)[nH]c2cc(C(=O)NC(C)C)ccc2c1=O,8.91%
16,O=c1[nH]c(=O)n(C2CCCCCC2)c(O)c1C=NCCCN1CCOCC1,12.8%
17,O=C(c1cc2ccccc2oc1=O)N1CCN(C(=O)C2CCCO2)CC1 (stereo not drawn),4.25%
18,CCOC(=O)C1(Cc2ccccc2C)CCCN(Cc2cn(C)nc2C)C1 (stereo not drawn),9.7%
19,CCC1(CC)C(=N)N(C)C(=O)NC1=O,17.9%
20,O=C(COc1ccc2ccccc2c1)NC1=NCCS1,11.8%
21,CCn1c(CNc2ccc(C(=O)O)cc2)nc2ccccc21,3.87%
22,CCn1nnc(NC(=O)c2cccnc2)n1,11.5%
23,CC1=NC(=O)C(N=Nc2cccc(C(=O)O)c2)N1c1ccccc1 (stereo not drawn),15.8%
24,COC(=O)C1(Cc2ccc(O)c(CC3OC3(C)C)c2)OC(=O)C(O)=C1c1ccc(O)cc1 (stereo not drawn),12%

row,Structure (SMILES),"hERG current change (%, negative = inhibition) at 1uM"
1,COc1ccccc1NC(=O)N1CCc2[nH]c3ccc(F)cc3c2C1,5.99%
2,Cc1ccc(S(=O)(=O)c2nc(Nc3nccs3)sc2Cl)cc1,15.3%
3,S=c1nc2ccccc2c2nc(-c3ccccc3)[nH]n12,17.9%
4,O=C(Nc1cccc(F)c1)OC(CN1CCCCC1)C(F)(F)F (stereo not drawn),5.13%
5,Fc1ccccc1NC(=S)NCc1ccc2c(c1)OCO2,6.42%
6,CC12CC(NC(=O)N1c1cccc(C(=O)N3CCN(c4ccccn4)CC3)c1)c1ccccc1O2 (stereo not drawn),6.79%
7,Cc1ccc(CN2C(=O)CCC2C(=O)NCc2ccccc2Cl)cc1 (stereo not drawn),7.62%
8,Cc1ccc(-c2nnc(SCC(=O)NC3CC3)n2N)cc1,3.61%
9,O=c1c2ccccc2nc(-c2ccco2)n1Cc1ccccc1,-5.48%
10,Cl.O.O=C(CCN1CCOCC1)Nc1ccc2c(c1)N(C(=O)CN1CCOCC1)c1ccccc1CC2,7.81%
11,Cc1cccc(CCN(CC(=O)NC(C)(C)C)C(=O)c2csnn2)c1,12.1%
12,O=C1NC(c2ccccc2)=C(c2ccc3ccccc3n2)C(c2ccncc2)N1 (stereo not drawn),1.5%
13,COc1ccc(C/C(N)=N/OC(=O)COc2ccccc2C)cc1,8.46%
14,COc1cccc(NC(=O)c2ccc(S(=O)(=O)NCc3cccnc3)cc2)c1,6.33%
15,COc1ccc(NCC(=O)N/N=C/c2cc([N+](=O)[O-])ccc2N2CCCC2)cc1,4.18%
16,CCC(C)(C)n1nnnc1CN(Cc1cccs1)Cc1cc2cc(OC)ccc2[nH]c1=O,13.6%
17,O=C(CN1C(=O)CSC1=O)N1CCCC(Nc2ccc(F)cc2)C1 (stereo not drawn),11.5%
18,c1ccc(-c2cnc(CSc3ncnc4sccc34)o2)cc1,10.6%
19,N#CCN(CC#N)C(=O)C1c2ccccc2Oc2ccccc21,17.4%
20,CCOc1ccc(Br)cc1S(=O)(=O)NCc1ccc(S(N)(=O)=O)cc1,4.06%
21,COc1ccccc1NS(=O)(=O)c1cc(NC(=S)Nc2cc(C)cc(C)c2)ccc1Cl,12%
22,COc1ccc2c(ccn2S(=O)(=O)c2ccccc2)c1,18.4%
23,CCOc1ccc(C(=O)NCc2ccncc2)cc1OCC,6.31%
24,CC(C)(CO)CN1CCC(n2nccc2NC(=O)C2CCCC2)CC1,10.2%

row,Structure (SMILES),"hERG current change (%, negative = inhibition) at 1uM"
1,O=C1OCc2ccc(NC(=O)C3CC3)cc21,5.11%
2,CSc1nc2ccc(NS(=O)(=O)c3ccc([N+](=O)[O-])cc3)cc2s1,12.6%
3,COC(=O)c1cc(S(=O)(=O)NC2CCCCC2)cn1C,14.5%
4,Cc1cccc(NC2=C(Cl)C(=O)OC2OC(=O)c2ccco2)c1 (stereo not drawn),14.7%
5,Cc1cc(F)ccc1NCC(=O)Nc1ccccc1Br,16.4%
6,COc1cccc(C2N(c3cccc(Cl)c3)C(=O)C3CCCN32)c1 (stereo not drawn),4.76%
7,Cc1cccc(N(CC(=O)NC2CCCC2)C(=O)CS(=O)CC(=O)Nc2ccc3c(c2)OCO3)c1 (stereo not drawn),-0.439%
8,COc1ccccc1C(=O)Nc1ccnn1C1CCN(Cc2cnn(C)c2C)CC1,-28.8%
9,COc1cccc(NC(=O)c2nc(S(C)(=O)=O)ncc2Cl)c1,14.4%
10,COc1cccc(CC2(CO)CCN(C(=O)NC3CCCCC3)CC2)c1,7.84%
11,COC(=O)C1=C(c2ccc3ccccc3c2)C[C@@H]2CC[C@H]1N2C(=O)NCCCOC(C)C,7.39%
12,COc1cc(C(=O)NC2CCCCCCC2)cc(OC)c1OC,6.38%
13,CC(C)(C)S(=O)(=O)c1ccc(S(=O)(=O)C(C)(C)C)s1,14.1%
14,Cc1nn(C)c(N)c1[N+](=O)[O-],7.72%
15,CCN(CC(=O)Nc1c(F)cccc1F)C(=O)CCNC(=O)c1ccccc1OC,-5.73%
16,CSCC[C@H](NC(=O)Nc1cccc(Br)c1)C(=O)O,0.179%
17,CCN(CC)c1ncnc2ccc(Br)cc12,12.5%
18,O=C(CNC(=O)c1cccc(F)c1)OCCOc1cccc(Cl)c1,8.24%
19,O=C(Nc1ccc(O)cc1)/C(=C/c1ccco1)NC(=O)c1ccccc1,14.9%
20,COc1ccc(CC(=O)NCc2ccc3c(c2)OCO3)cc1,7.15%
21,CCc1ccc(Nc2ccc(C(=O)O)cc2[N+](=O)[O-])cc1,10.1%
22,O=C(N1CCC(n2nc(-c3ccccc3)oc2=O)CC1)C1(c2ccccc2)CC1,7.44%
23,O=c1[nH]c(/C=C\c2cccc(F)c2)nc(O)c1[N+](=O)[O-],16%
24,COCC(=O)Nc1nc2ccc(S(C)(=O)=O)cc2s1,8.71%

row,Structure (SMILES),"hERG current change (%, negative = inhibition) at 1uM"
1,CCOC(=O)c1cc(-c2ccco2)nn1-c1ccc(C)cc1,9.57%
2,Cn1nnc(-c2ccc(OCc3ccccc3F)cc2)n1,4.1%
3,Cn1c(=O)c2c(n(Cc3ccccc3)c1=O)NC(=O)C2CC(=O)NCc1cccc(Cl)c1 (stereo not drawn),9.58%
4,Cn1cc(CN2CCN(CCO)CC2)c(-c2ccc(Oc3ccccc3)cc2)n1,8.73%
5,O=C(O)C=C1CCN(c2ncc(C(F)(F)F)cc2Cl)CC1,15.2%
6,CCOC(=O)C1CCCNC1=O (stereo not drawn),11.4%
7,OC(CNCCc1ccccc1)c1ccccc1 (stereo not drawn),15.9%
8,COc1ccc(/C=N/N2CCN(C)CC2)cc1O,8.41%
9,Cc1nn(Cc2ccc(C(=O)n3cccn3)o2)c(C)c1Br,1.86%
10,O=C(c1cc(Cl)ccc1[N+](=O)[O-])n1cnc2ccccc21,3.35%
11,O=C(c1cccc(C(F)(F)F)c1)N1CCOc2ccccc21,4.27%
12,O=C(Nc1cccc([N+](=O)[O-])c1)c1ccc(CSc2ccccc2)cc1,2.11%
13,O=C(c1ccc2c(=O)n(-c3ccccc3)c(=S)[nH]c2c1)N1CCCCC1,10.5%
14,COc1ccccc1OCCNc1cc(N2CCOCC2)ccc1[N+](=O)[O-],2.03%
15,CCOC(=O)c1c(NC(=O)Nc2cccc(Cl)c2)sc(C)c1C,-10.6%
16,CCc1ccccc1NC(=O)CCN1C(=O)C2C3CCC(C3)C2C1=O (stereo not drawn),9.67%
17,Oc1c(Cl)cccc1C=Nc1cc(C(F)(F)F)ccc1N1CCCC1,-11.4%
18,COC(=O)c1sccc1NC(=O)CN(C)NS(=O)(=O)c1ccc([N+](=O)[O-])cc1,13.2%
19,O=C(NC(=S)NCc1nc2ccccc2[nH]1)c1ccccc1F,-4.6%
20,N#Cc1c(N)oc(-c2ccccc2)c1-c1ccccc1,3.55%
21,COc1cccc2[nH]c3c(N4CCCC(C)C4)ncnc3c12 (stereo not drawn),9.4%
